# Test results: publication PMC4336329 (PLoS ONE, 2015)
# The whole screen tested about 310,000 compounds, of which about 2,200 (0.71%) showed an effect of 50% or more. The effect is printed as a negative number. Some of the results follow.
# Target: human ether-à-go-go-related gene (hERG) potassium channel (human, UniProt Q12809)
# Test: primary screen, population patch clamp on CHO cells stably expressing hERG
# Chain of human ether-à-go-go-related gene (hERG) potassium channel (Q12809 whole entry, looked up): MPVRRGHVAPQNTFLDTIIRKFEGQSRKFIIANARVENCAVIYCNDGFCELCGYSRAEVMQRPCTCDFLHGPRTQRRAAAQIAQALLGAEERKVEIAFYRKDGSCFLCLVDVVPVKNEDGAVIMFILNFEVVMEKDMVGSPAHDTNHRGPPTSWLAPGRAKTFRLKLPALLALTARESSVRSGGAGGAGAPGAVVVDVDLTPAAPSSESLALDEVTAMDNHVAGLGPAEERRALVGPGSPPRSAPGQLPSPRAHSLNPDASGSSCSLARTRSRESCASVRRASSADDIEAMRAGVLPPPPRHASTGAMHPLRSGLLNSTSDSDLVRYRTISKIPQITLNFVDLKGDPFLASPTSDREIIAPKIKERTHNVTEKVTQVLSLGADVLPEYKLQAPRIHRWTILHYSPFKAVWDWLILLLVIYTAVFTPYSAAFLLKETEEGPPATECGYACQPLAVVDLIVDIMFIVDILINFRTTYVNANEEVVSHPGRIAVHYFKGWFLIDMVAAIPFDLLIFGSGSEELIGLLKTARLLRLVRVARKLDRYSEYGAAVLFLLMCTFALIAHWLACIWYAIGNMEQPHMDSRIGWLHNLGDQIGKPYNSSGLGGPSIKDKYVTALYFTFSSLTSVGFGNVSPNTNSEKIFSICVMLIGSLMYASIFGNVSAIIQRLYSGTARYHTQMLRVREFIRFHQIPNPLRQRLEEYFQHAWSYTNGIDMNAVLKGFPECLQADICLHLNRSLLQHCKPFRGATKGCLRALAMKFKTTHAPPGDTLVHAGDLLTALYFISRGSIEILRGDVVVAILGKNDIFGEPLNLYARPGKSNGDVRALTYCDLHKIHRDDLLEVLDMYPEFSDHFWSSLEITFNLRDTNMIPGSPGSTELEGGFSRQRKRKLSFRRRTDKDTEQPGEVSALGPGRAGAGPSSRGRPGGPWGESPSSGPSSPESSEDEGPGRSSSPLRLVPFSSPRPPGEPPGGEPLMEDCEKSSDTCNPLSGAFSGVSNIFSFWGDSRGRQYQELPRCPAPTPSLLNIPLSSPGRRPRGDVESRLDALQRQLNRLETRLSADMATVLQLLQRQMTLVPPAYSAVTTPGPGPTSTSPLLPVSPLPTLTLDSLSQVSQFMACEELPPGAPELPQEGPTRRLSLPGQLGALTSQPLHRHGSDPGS
row,Compound,"hERG current change (%, negative = inhibition) at 1uM"
1,COCCN1C(=O)c2oc3ccccc3c(=O)c2C1c1ccc(O)c(OC)c1 (stereo not drawn),3.25%
2,O=C(Nc1ccc(F)cc1)C1CCN(C(=O)c2ccc(F)cc2)CC1,-20.8%
3,Cn1cnnc1SCC(=O)NC1CCCCC1,2.66%
4,CCN(CCO)c1ccc(NC(=S)Nc2cccc(S(=O)(=O)N(C)C)c2)cc1,10.4%
5,Cc1ccc(S(=O)(=O)N(CC(=O)N2CCOCC2)CC(=O)N2CCOCC2)cc1,8.74%
6,CCOC(=O)c1ccc(NC(=O)NCCc2cnc[nH]2)cc1,10.2%
7,CC1(C)CC(=O)C=C(Nc2cccc(Cl)c2Cl)C1,-0.621%
8,CC(=O)N/N=C(\N)c1nonc1N,13.9%
9,COC(=O)C1=COC(OC2OC(CO)C(O)C(O)C2O)C2C1C=CC2(O)CO (stereo not drawn),5.93%
10,O=C(O)COCC(=O)N1CCCN(c2nccc(C(F)(F)F)n2)CC1,17.7%
11,Cc1[nH]n(-c2ccc(Cl)cc2)c(=O)c1C=Nc1ccc(S(=O)(=O)N2CCOCC2)cc1,5.73%
12,CCOC(=O)c1cnn(-c2nc(SC)nc3sc4c(c23)CCCC4)c1N,9.29%
13,COc1ccccc1N1CCN(C(=O)c2c(-c3ccccc3Cl)noc2C)CC1,-9.28%
14,Cc1cccc(N=C2NC(=O)/C(=C/c3cccnc3)S2)c1,10.4%
15,Cc1ccc(S(=O)(=O)N2CCC[C@H]2C(=O)OC(C)C(=O)Nc2ncc(Cl)cc2Cl)cc1 (stereo partly drawn),-1.56%
16,COc1ccc(OC)c(-c2[nH]nc3c2C(c2ccco2)C(C#N)=C(N)O3)c1 (stereo not drawn),1.42%
17,Cc1ccc(CNC(=O)CCn2nc(-c3ccc(Cl)cc3)ccc2=O)cc1,-3.01%
18,COCCN1Cc2cccc(C(=O)NCC3CCN(CC(C)C)C3)c2C1=O (stereo not drawn),-2.8%
19,COCCN=C1N[C@@H](c2cccc(C(F)(F)F)c2)C(C(=O)OC)=C(C)N1Cc1ccccc1,8.73%
20,CC(=O)Nc1ccc(Nc2cc(C)nc3c(-c4ccccc4)c(C)nn23)cc1,12.8%
21,CCOC(=O)C1CCN(S(=O)(=O)CCNC(=O)c2cccc(OC)c2)CC1,1.22%
22,Cn1cnnc1SCC(=O)NNC(=O)COc1ccc(Cl)cc1,13.6%

row,Compound,"hERG current change (%, negative = inhibition) at 1uM"
1,CC(=O)NC(c1cccc([N+](=O)[O-])c1)c1ccc2cccnc2c1O (stereo not drawn),10.9%
2,Br.Cc1c(Nc2scc(-c3ccccc3)[n+]2-c2ccccc2)c(=O)n(-c2ccccc2)n1C,2.02%
3,Cc1c(NC(=O)COC(=O)c2ccc(S(=O)(=O)N3CCOCC3)cc2)c(=O)n(-c2ccccc2)n1C,16.5%
4,COCc1cc(=O)[nH]c(SCC(=O)c2ccccc2)n1,4.78%
5,CCOc1cc(/C=N/NC(N)=O)cc(Br)c1OCc1ccccc1F,16.1%
6,Cc1ccc(S(=O)(=O)CCN2CCC(O)(c3ccccc3)CC2)cc1,10.7%
7,COc1ccc(N(CC(C)C)S(=O)(=O)c2nnc(NC(=O)c3ccco3)s2)cc1,21.4%
8,CCc1nc(SCC(=O)N2c3ccccc3Sc3ccccc32)c2ccccc2n1,4.74%
9,O=[N+]([O-])c1ccc(N2CCCC2)c2ncccc12,2.1%
10,COc1cc(CNc2ccc3c(c2)OCCO3)ccc1OCC(N)=O,2.79%
11,COc1ccc2c(CCNC(N)=S)c[nH]c2c1,7.26%
12,CCOC(=O)C1CCN(C(=O)C(CC)c2ccccc2)CC1 (stereo not drawn),-0.495%
13,COc1ccc(NC(=S)NC(C)c2ccncc2)cc1OC (stereo not drawn),3.49%
14,CCOC(=O)[C@@H](C)N(Cc1ccc(OC)cc1)S(=O)(=O)N(Cc1ccccc1)[C@H](C(=O)OC)C(C)C,13%
15,CC1(C)CN(c2ccc(F)cc2)C1=O,9.44%
16,Nc1nc(Cl)nc2c1ncn2[C@@H]1O[C@H](CO)[C@@H](O)[C@H]1O,10.3%
17,O=c1c2[nH]c3ccc(Br)cc3c2ncn1Cc1ccncc1,7.34%
18,CCOc1ccccc1NC(=O)COC(=O)CSc1ccc(Cl)cc1,10.8%
19,COc1ccc(Nc2nc3c([nH]2)c(=O)[nH]c(=O)n3C)cc1,4.85%
20,COc1ccc(-c2cc3nc(C)c(CCC(=O)NCc4ccco4)c(C)n3n2)c(OC)c1,-3.95%
21,Cc1cc(N2C(=O)C3CC=CCC3C2=O)cc(C)c1Br (stereo not drawn),17.3%
22,O=C(NCC(c1ccco1)N1CCc2ccccc21)c1ccc([N+](=O)[O-])cc1 (stereo not drawn),-1.88%

row,Compound,"hERG current change (%, negative = inhibition) at 1uM"
1,N/C(=N\OC(=O)Cc1ccc(-c2ccccc2)cc1)c1ccncc1,20.2%
2,O=C1CCc2cc(S(=O)(=O)N3CCN(c4cccc(C(F)(F)F)c4)CC3)ccc2N1,-3.31%
3,CCc1c(C)c2c(C)[nH]nc2oc1=O,10.5%
4,O=C(CCNC(=O)c1ccc(Cl)cc1)Nc1ccc(S(=O)(=O)N2CCOCC2)cc1,3.3%
5,CC1=C(C)CC(C(=O)NCCc2ccccc2)C(C(=O)O)C1 (stereo not drawn),-2.23%
6,CCN(CC)C(=O)CN(c1ccc2c(c1)OCO2)S(C)(=O)=O,-7.7%
7,COc1ccc(/C=C/C(=O)NC(=S)N2CCN(c3ccccn3)CC2)cc1,5.03%
8,CCOC(=O)C1=C(C)N(C)C(=S)NC1c1cc(OC)ccc1OC (stereo not drawn),7.94%
9,O=C(Nc1c2c(nn1-c1ccc(F)cc1)CS(=O)(=O)C2)C12CC3CC(CC(C3)C1)C2,9.85%
10,O=C(NCc1ccccc1Cl)C1CCN(S(=O)(=O)c2cccc3nonc23)CC1,19.8%
11,COc1ccc(NC(=O)CC2C(=O)N(c3ccc(OC)cc3)C(=O)N2CCN2CCN(C)CC2)cc1 (stereo not drawn),7.42%
12,CCN(CCCNC(=O)CCCCn1c(=O)[nH]c2ccccc2c1=O)c1ccccc1,-1.3%
13,CC(C)CCNC(=O)Cn1c(=O)oc2cc(S(=O)(=O)N3CC(C)CC(C)C3)ccc21 (stereo not drawn),21.6%
14,COc1cnc(SCC(=O)O)[nH]c1=O,18%
15,CC1CCN(c2ccc(/C=N\Nc3nncn3N)cc2[N+](=O)[O-])CC1,12.2%
16,COc1ccc(/C=C/C(=O)N2CCC(C(N)=O)CC2)cc1S(=O)(=O)N1CCOCC1,12.5%
17,CCn1c(=O)c(-c2cc(=O)[nH][nH]2)c(O)c2ccccc21,-11%
18,CCOC(=O)N1CCN(C(=S)Nc2ccccc2C)CC1,9.32%
19,CCOC(=O)C1CCCN(C(=O)c2ccc3[nH]c4c(c3c2)CC(C)CC4)C1 (stereo not drawn),10.3%
20,CCN(CC)c1ccc(S(=O)(=O)N2CCOCC2)cc1NC(=O)COC(=O)c1cccnc1SC,1.22%
21,Nc1ccc(C(=O)N2CCN(S(=O)(=O)c3ccc(Br)cc3)CC2)cc1[N+](=O)[O-],10.1%
22,O=[N+]([O-])c1ccc(Nc2nccc(Cl)n2)cc1,10.2%

row,Compound,"hERG current change (%, negative = inhibition) at 1uM"
1,CCCCS(=O)(=O)N1CCCC(C(=O)Oc2ccc(Cl)cc2)C1 (stereo not drawn),15.4%
2,O=C(Nc1ccc(Cl)cc1)c1cc2nc(-c3ccco3)cc(C(F)(F)F)n2n1,3.21%
3,Cn1c([O-])c(Cc2cccc(Cl)c2Cl)c(=O)n(C)c1=O.[NH4+],17.5%
4,COc1ccc(NC(=S)Nc2ccc3nc(C)c(C)nc3c2)cc1,11.1%
5,CCC(C)NCCCCOc1ccc(Cl)cc1C.O=C(O)C(=O)O (stereo not drawn),0.708%
6,CCN(CC)S(=O)(=O)c1ccc(N(C)C)c(NC(=O)CSCc2c(C)noc2C)c1,-14.8%
7,O=CN1CCN(C(=O)c2ccc([N+](=O)[O-])cc2)CC1,-3.87%
8,CCOC(=O)C1=CC[C@@H](c2ccccc2Cl)N(S(=O)(=O)c2ccc(C)cc2)[C@H]1C(=O)OCC,-3.03%
9,CSCCC(NC(=O)c1ccccc1)C(=O)Nc1ccncc1 (stereo not drawn),4.03%
10,CC(C1CC1)N(C(=O)NC1CCS(=O)(=O)C1)c1ccccc1 (stereo not drawn),6.55%
11,NS(=O)(=O)c1ccc2nc(NC(=O)C3=COCCO3)sc2c1,12.3%
12,CN(CCO)c1ccc(-c2nn(C)c(=O)c3ccccc23)cc1[N+](=O)[O-],9.86%
13,Cc1ccc(/C=N/N2CCN(Cc3cccc4ccccc34)CC2)o1,8.84%
14,O=C(CSc1ncc(-c2ccccc2)[nH]1)Nc1cccc(O)c1,2.59%
15,Cc1ccc(-n2nc(C)c(Sc3ccccc3[N+](=O)[O-])c2N)cc1,5.25%
16,COc1ccc(CN(C2CCCC2)S(=O)(=O)c2ccc(-n3cnnn3)cc2)cc1OC,-18.9%
17,Cc1nc2ccccc2c(C)c1CC(=O)N(C)CC(=O)Nc1cccc(F)c1,-13.2%
18,CCN(CC)c1ccc(/C=N/N2CCN(Cc3ccccc3)CC2)c(O)c1,-0.743%
19,Cc1ccccc1NC(=O)Nc1ccccc1C(=O)NCc1ccccc1,0.0206%
20,Cc1cc(C)n(Cc2cccc(C(=O)N/N=C/c3ccncc3)c2)n1,11.1%
21,CCc1nnc(NC(=O)CSc2ccc(-c3nc4ccc(C)cc4[nH]3)cn2)s1,13.2%
